Source: the supplement of paper PMC4967469
By IC50 is meant the dose at which the fit gives 50% viability; fits outside the tested doses are given as limits. For AUC the same curve is integrated over the 256-fold range of doses and scaled to a fraction; values near 1 show little effect. For some of these results: A top dose marked as inferred was calculated from the reported fits. For some of these results: Drugs with an entry number were screened twice under separate entries, and the two screens often disagree.

Columns and labels:
Assay in all cases: Viability of human cancer cell lines after 72 h of drug (GDSC screen)
KU-55933 = compound: O=c1cc(-c2cccc3c2Sc2ccccc2S3)oc(N2CCOCC2)c1 [KU-55933]; settings: top dose 10 µM
Method: (§1)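 Human cancer cell lines in 384-well plates, medium with 10% serum, drug for 72 h over a 256-fold dose range (nine 2-fold or five 4-fold steps up to the top dose). Adherent lines were fixed and stained with the nucleic acid dye Syto60, suspension lines read with resazurin; signal relative to control wells, capped at 0 and 100%. One two-parameter sigmoid per drug and line, fitted in a mixed model over all curves with the slope shared within a line.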

GSK269962A = compound: CCn1c(-c2nonc2N)nc2cnc(Oc3cccc(NC(=O)c4ccc(OCCN5CCOCC5)cc4)c3)cc21 [GSK269962A]; settings: top dose inferred
Method: as §1

Thapsigargin = compound: C/C=C(/C)C(=O)O[C@H]1C(C)=C2[C@H]([C@@H]1OC(=O)CCCCCCC)[C@@](C)(OC(C)=O)C[C@H](OC(=O)CCC)[C@@]1(O)[C@H]2OC(=O)[C@@]1(C)O [Thapsigargin]; settings: top dose 0.512 µM; top dose inferred
Method: as §1

CP466722 = compound: COc1cc2ncnc(-n3nc(-c4ccccn4)nc3N)c2cc1OC [CP466722]; settings: top dose 16 µM; top dose inferred
Method: as §1

ABT-888 = compound: C[C@]1(c2nc3c(C(N)=O)cccc3[nH]2)CCCN1 [ABT-888]; settings: top dose 5 µM; top dose inferred
Method: as §1

QL-X-138 = compound: C=CC(=O)Nc1cc(-n2c(=O)ccc3cnc4ccc(-c5cn[nH]c5)cc4c32)ccc1C [QL-X-138]; settings: top dose 10.24 µM; top dose inferred
Method: as §1

Zibotentan = compound: COc1nc(C)cnc1NS(=O)(=O)c1cccnc1-c1ccc(-c2nnco2)cc1 [Zibotentan]; settings: top dose 20 µM; top dose inferred
Method: as §1

(5Z)-7-Oxozeaenol = compound: COc1cc(O)c2c(c1)/C=C/C[C@H](O)[C@H](O)C(=O)/C=C\C[C@H](C)OC2=O [(5Z)-7-Oxozeaenol]; settings: top dose 10 µM; top dose inferred
Method: as §1

ABT-869 = compound: Cc1ccc(F)c(NC(=O)Nc2ccc(-c3cccc4[nH]nc(N)c34)cc2)c1 [ABT-869]; settings: top dose 1.024 µM; top dose inferred
Method: as §1

MPS-1-IN-1 = compound: COc1cc(N2CCC(O)CC2)ccc1Nc1cc(Nc2ccccc2S(=O)(=O)C(C)C)c2cc[nH]c2n1 [MPS-1-IN-1]; settings: top dose 20 µM; top dose inferred
Method: as §1

CHIR-99021 = compound: Cc1cnc(-c2cnc(NCCNc3ccc(C#N)cn3)nc2-c2ccc(Cl)cc2Cl)[nH]1 [CHIR-99021]
Method: as §1

Cytarabine = compound: Nc1ccn([C@@H]2O[C@H](CO)[C@@H](O)[C@@H]2O)c(=O)n1 [Cytarabine]; settings: top dose 2 µM
Method: as §1

CMK = compound: Cc1ccc(-c2c(C(=O)CCl)n(CCCO)c3ncnc(N)c23)cc1 [CMK]; settings: top dose 4 µM; top dose inferred
Method: as §1

[1] = top dose 2.5 µM, screen: GDSC drug entry 127
[2] = top dose 5 µM, screen: GDSC drug entry 1192
[3] = top dose 2.56 µM, screen: GDSC drug entry 154
[4] = top dose 10 µM, screen: GDSC drug entry 1241, top dose inferred

Row | Cell Line | AUC (KU-55933) | IC50 (KU-55933) [µM] | AUC (GSK269962A; [1]) | IC50 (GSK269962A; [1]) [µM] | AUC (GSK269962A; [2]) | IC50 (GSK269962A; [2]) [µM] | AUC (Thapsigargin) | IC50 (Thapsigargin) [µM] | AUC (CP466722) | IC50 (CP466722) [µM] | AUC (ABT-888) | IC50 (ABT-888) [µM] | AUC (QL-X-138) | IC50 (QL-X-138) [µM] | AUC (Zibotentan) | IC50 (Zibotentan) [µM] | AUC ((5Z)-7-Oxozeaenol) | IC50 ((5Z)-7-Oxozeaenol) [µM] | AUC (ABT-869) | IC50 (ABT-869) [µM] | AUC (MPS-1-IN-1) | IC50 (MPS-1-IN-1) [µM] | AUC (CHIR-99021; [3]) | IC50 (CHIR-99021; [3]) [µM] | AUC (CHIR-99021; [4]) | IC50 (CHIR-99021; [4]) [µM] | AUC (Cytarabine) | IC50 (Cytarabine) [µM] | AUC (CMK) | IC50 (CMK) [µM]
1 | TE-5 (oesophagus, adherent) | 0.968 | > 10 | 0.976 | > 2.5 | 0.956 | > 5 | 0.779 | 0.243 | 0.867 | > 16 | 0.978 | > 5 | 0.778 | 4.8 | 0.984 | > 20 | 0.576 | 1.04 | 0.983 | > 1.02 | 0.973 | > 20 | 0.979 | > 2.56 | 0.973 | > 10 | 0.67 | 0.401 | 0.966 | > 4
2 | TE-6 (oesophagus, adherent) | 0.972 | > 10 | 0.973 | > 2.5 | 0.954 | > 5 | 0.226 | 0.00434 | 0.821 | 11.4 | 0.986 | > 5 | 0.856 | > 10.2 | 0.982 | > 20 | 0.985 | > 10 | 0.979 | > 1.02 | 0.859 | > 20 | 0.986 | > 2.56 | 0.957 | > 10 | 0.873 | > 2 | 0.985 | > 4
3 | TE-8 (oesophagus, adherent) | 0.954 | > 10 | 0.948 | > 2.5 | 0.83 | 3.45 | 0.181 | 0.00323 | 0.899 | > 16 | 0.985 | > 5 | 0.9 | > 10.2 | 0.985 | > 20 | 0.43 | 0.396 | 0.979 | > 1.02 | 0.881 | > 20 | 0.956 | > 2.56 | 0.886 | > 10 | 0.593 | 0.23 | 0.7 | 0.954
4 | TE-9 (oesophagus, adherent) | 0.974 | > 10 | 0.96 | > 2.5 | 0.929 | > 5 | 0.367 | 0.0135 | 0.96 | > 16 | 0.987 | > 5 | 0.97 | > 10.2 | 0.987 | > 20 | 0.769 | 3.92 | 0.987 | > 1.02 | 0.987 | > 20 | 0.978 | > 2.56 | 0.981 | > 10 | 0.804 | 1.05 | 0.947 | > 4
5 | TE-11 (oesophagus, adherent) | 0.951 | > 10 |  |  | 0.863 | 3.7 | 0.224 | 0.00549 | 0.946 | > 16 | 0.978 | > 5 | 0.972 | > 10.2 | 0.99 | > 20 | 0.858 | 7.06 | 0.986 | > 1.02 | 0.935 | > 20 | 0.986 | > 2.56 | 0.955 | > 10 | 0.966 | > 2 | 0.977 | > 4
